This is one part of the list. The list includes weakly bound sequences.

This note sets out measurements from article PMC4242493.

The experiment has as its target MaxL homodimer (UniProt P61244). Description: universal protein-binding microarray (PBM). The note with it: PBS-based mixture, 10 nM His-tagged protein dimer, 2% milk, 200 ng/uL BSA, 50 ng/uL salmon testes DNA, 0.02% TX-100; detection with Alexa 488 anti-His …; high values mean tight binding; most listed sequences are background and not binding sites; double strand, one strand shown.
UniProt P61244, sequence (P61244 whole entry): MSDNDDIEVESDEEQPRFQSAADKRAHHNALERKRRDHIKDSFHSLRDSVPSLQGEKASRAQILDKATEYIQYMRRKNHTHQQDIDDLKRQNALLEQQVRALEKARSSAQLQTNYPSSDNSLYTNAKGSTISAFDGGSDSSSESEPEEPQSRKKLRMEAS
With CTTTACGC, the binding signal (normalized occupancy) worked out at 0.0726.

As for GACTTTGA, the binding signal (normalized occupancy) is 0.0748.

AATCTCTG: the binding signal (normalized occupancy) stood at 0.0763.

As to AAACTTTG, the binding signal (normalized occupancy) amounted to 0.0703.

In the case of CATCGTAC, the binding signal (normalized occupancy) was determined as 0.0827.

With CGTTTTGC, the binding signal (normalized occupancy) was 0.0707.

For the sequence AGGGAACC, the binding signal (normalized occupancy) is 0.0702.

Regarding AAAGATCA, the binding signal (normalized occupancy) came to 0.0745.

Take AGAAGGAA: the binding signal (normalized occupancy) was 0.0755.

GAAGTACA: the binding signal (normalized occupancy) is 0.0746.

For AGCCCCAG, the binding signal (normalized occupancy) came to 0.0695.

Turning to GATCAGTA, the binding signal (normalized occupancy) worked out at 0.076.

In the case of CCTAAGCA, the binding signal (normalized occupancy) amounted to 0.0713.

With CTTACTCC, the binding signal (normalized occupancy) was determined as 0.0777.

On to CTAAGTTA, for which the binding signal (normalized occupancy) was found to be 0.0721.

As for CCGTATAA, the binding signal (normalized occupancy) turned out to be 0.0756.

For the sequence CAACAGTG, the binding signal (normalized occupancy) amounted to 0.0733.

Turning to AATTTCGC, the binding signal (normalized occupancy) was determined as 0.0705.

On to TAGCACGA, for which the binding signal (normalized occupancy) came out at 0.0776.

CGTTGAGC: the binding signal (normalized occupancy) worked out at 0.0723.

For AATGCTAA, the binding signal (normalized occupancy) turned out to be 0.0733.

On to AAGGCATT, for which the binding signal (normalized occupancy) came out at 0.0725.

As for GAACATCC, the binding signal (normalized occupancy) is 0.0772.

Take CGGCAACC: the binding signal (normalized occupancy) amounted to 0.066.

As for ACTTGTAT, the binding signal (normalized occupancy) was 0.0845.

Regarding CCTTCTCG, the binding signal (normalized occupancy) was 0.0739.

GGCGAGAA: the binding signal (normalized occupancy) was found to be 0.0685.

As to AGTGGGTC, the binding signal (normalized occupancy) is 0.0713.

In the case of ATGCAGAG, the binding signal (normalized occupancy) is 0.0722.

As for TATCTGGA, the binding signal (normalized occupancy) was 0.0789.

On to GACGAACA, for which the binding signal (normalized occupancy) is 0.0707.

For CATCGAGG, the binding signal (normalized occupancy) came out at 0.0773.

On to ACGCTCCG, for which the binding signal (normalized occupancy) is 0.0727.

Consider AAGAGATA, for which the binding signal (normalized occupancy) was 0.0732.

Regarding CGCTGACG, the binding signal (normalized occupancy) turned out to be 0.0714.

As to AACACAAA, the binding signal (normalized occupancy) stood at 0.0735.

As for AGGGGCCA, the binding signal (normalized occupancy) was found to be 0.0738.

Turning to GGAGACGA, the binding signal (normalized occupancy) amounted to 0.0726.

As to CCGGAGAA, the binding signal (normalized occupancy) is 0.0679.

Consider GCTGATCA, for which the binding signal (normalized occupancy) came to 0.072.

As to TAGCATAA, the binding signal (normalized occupancy) is 0.0826.

On to CTTAATTC, for which the binding signal (normalized occupancy) stood at 0.0739.

Turning to GAATACCC, the binding signal (normalized occupancy) was found to be 0.0753.

Take AATCGTCA: the binding signal (normalized occupancy) stood at 0.0757.

Take GTTACTAA: the binding signal (normalized occupancy) is 0.0745.

Consider CCACATCA, for which the binding signal (normalized occupancy) came out at 0.0798.

For CCCCCAAG, the binding signal (normalized occupancy) was found to be 0.0761.

For the sequence GTTACGCA, the binding signal (normalized occupancy) came to 0.0747.

On to AGCGGGGA, for which the binding signal (normalized occupancy) is 0.0718.

Regarding AGTGCCTC, the binding signal (normalized occupancy) was 0.0729.

Take CAATTTAA: the binding signal (normalized occupancy) worked out at 0.076.

TGCATAAA: the binding signal (normalized occupancy) is 0.0782.

As to AACCAGCC, the binding signal (normalized occupancy) amounted to 0.0688.

With GAGTAAAC, the binding signal (normalized occupancy) turned out to be 0.074.

Turning to CGACTTTC, the binding signal (normalized occupancy) amounted to 0.0737.

As to AAGAGAAT, the binding signal (normalized occupancy) was 0.0733.

Turning to ATCGCATA, the binding signal (normalized occupancy) was 0.082.

For CTCTCAAA, the binding signal (normalized occupancy) amounted to 0.0709.

For the sequence GATCCCCA, the binding signal (normalized occupancy) was determined as 0.0799.

In the case of ACTCGTGG, the binding signal (normalized occupancy) came to 0.0955.

ATATGCAA: the binding signal (normalized occupancy) was 0.0815.

For the sequence ATGGTGCA, the binding signal (normalized occupancy) was 0.0823.

Consider AGTTAATG, for which the binding signal (normalized occupancy) turned out to be 0.0796.

With AGAAGGTC, the binding signal (normalized occupancy) was found to be 0.0713.

On to CGATATAG, for which the binding signal (normalized occupancy) was determined as 0.0758.

Regarding AGTGGACC, the binding signal (normalized occupancy) worked out at 0.0686.

Turning to AGGTGCCG, the binding signal (normalized occupancy) turned out to be 0.0743.

With CATAGTAA, the binding signal (normalized occupancy) came out at 0.0803.

On to CGCATAGC, for which the binding signal (normalized occupancy) was 0.0734.

Take GCTCTGAA: the binding signal (normalized occupancy) is 0.0745.

As for ACCTCCAT, the binding signal (normalized occupancy) was determined as 0.0778.

For CGGACGCA, the binding signal (normalized occupancy) worked out at 0.0735.

With ACACGAGC, the binding signal (normalized occupancy) amounted to 0.0815.

Regarding GCACACTA, the binding signal (normalized occupancy) amounted to 0.0826.

For the sequence AGCCGGTC, the binding signal (normalized occupancy) came out at 0.0683.

Take ACATGACT: the binding signal (normalized occupancy) turned out to be 0.092.

As to GGTTGTTA, the binding signal (normalized occupancy) amounted to 0.0782.

Turning to CATGATCA, the binding signal (normalized occupancy) came to 0.087.

In the case of ACCTAAGA, the binding signal (normalized occupancy) turned out to be 0.0773.

As to GTAAGATA, the binding signal (normalized occupancy) turned out to be 0.0747.

Turning to ACACAGCA, the binding signal (normalized occupancy) was 0.0858.

For CCTAGTAA, the binding signal (normalized occupancy) came out at 0.0723.

Regarding CAAGATCC, the binding signal (normalized occupancy) was found to be 0.0712.

For AGGCTGGC, the binding signal (normalized occupancy) came out at 0.0702.

In the case of AAGCCTTC, the binding signal (normalized occupancy) came out at 0.0713.

Take GCAACGTA: the binding signal (normalized occupancy) is 0.0759.

CGCGGCAG: the binding signal (normalized occupancy) came out at 0.0743.

AACTTAAT: the binding signal (normalized occupancy) turned out to be 0.0702.

On to AATGCTAG, for which the binding signal (normalized occupancy) stood at 0.079.

For the sequence ATTACGTA, the binding signal (normalized occupancy) was determined as 0.0796.

On to AATTATAA, for which the binding signal (normalized occupancy) was found to be 0.0729.

In the case of CACCTCTG, the binding signal (normalized occupancy) was 0.0758.

As for ACCGGCAT, the binding signal (normalized occupancy) is 0.0807.

As to AAATGGCC, the binding signal (normalized occupancy) came out at 0.074.
